The campaign covered roughly 48,000 compounds. About 450 (0.94%) were called active. Inconclusive results (about 19%) are left out. The call rests on the fitted dose curve; in most records, active means well fitted inhibition curve with a large enough effect; inconclusive means small, poorly fitted or top-dose-only effect; inactive means no such curve, though single readings can be large or run the other way. The list shows a part of the results.

A short description of the experiment: Primary qHTS for Identification of Small Molecule Inhibitors of Huntingtin Promoter Activity. Further: nearly all actives have a fitted effect of over 50% in size. The settings on record: HEK293 HTT promoter firefly luciferase reporter (activity 0% = vehicle and -100% = no light), 24 h; series mostly up to 57.5 µM; activity change, negative = inhibition: at the top concentration. The procedure, abridged:
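Quantitative HTS used concentration series of up to 57.5 uM final on HEK293 luciferase reporter cells, 24 h at 37 degrees C. Readout was Dual-Glo firefly luminescence.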
As to `Cc1ccc(NC(=O)Nc2nnc(N(C)Cc3ccccc3)s2)cc1`, the “activity change, negative = inhibition” value is inactive: -1.16%. In the case of `COc1ccccc1N1CCN(C(=O)Cn2ncc3c(=O)oc4ccccc4c32)CC1`, the “activity change, negative = inhibition” value was inactive: -4.07%. For `CC(=O)Nc1cccc(NC(=O)Cn2cnc3c2c(=O)n(C)c(=O)n3C)c1`, the “activity change, negative = inhibition” value was inactive: -1.53%. On to `O=C(Nc1ccc(C(=O)OCc2cc(=O)n3nc(C4CC4)sc3n2)cc1)c1ccc(F)cc1`, for which the “activity change, negative = inhibition” value was inactive: -8.7%. In the case of `Cc1nc(N2CCCC2)c2c(C(=O)Nc3cccc(C)c3C)c(C)oc2n1`, the “activity change, negative = inhibition” value is inactive: -8.14%.

As to `CCN(CC)c1ccc(NC(=O)C(Cc2ccccc2)NS(=O)(=O)c2ccc(Br)s2)c(C)c1` (centres undefined), the “activity change, negative = inhibition” value is inactive: -9.14%. The result for `COc1ccc(CCNCc2c(C(=O)O)c(C)n(Cc3ccccc3C)c2C)c(OC)c1` reads inactive: -21%; that for `COc1ccc(S(=O)(=O)N(CC(=O)NCc2ccccc2OC)c2ccc(C)cc2)cc1`, inactive: -29.1%; that for `CCOc1ccccc1N(C)C(=O)Cn1cnc2sc(C)c(S(=O)(=O)N3CCC(C)CC3)c2c1=O`, inactive: -22.7%. Consider `COc1cc(OC)c(NC(=O)COCc2cc(-c3cccs3)on2)cc1Cl`, for which the “activity change, negative = inhibition” value is inactive: -18.8%. The result for `CC(C)(C)NC[C@H](O)COc1nsnc1N1CCOCC1` reads inactive: 6.63%; that for `COc1ccccc1CCNC(=O)CCc1c(C)c2cc3c(C)coc3c(C)c2oc1=O`, inactive: -6.05%; that for `CN(C)CCN(Cc1ccco1)S(=O)(=O)c1cc2c(cc1Cl)NC(=O)CO2`, inactive: 7.67%. In the case of `Cc1cn2c(=O)cc(COc3ccc(NC(=O)c4cccc(F)c4)cc3)nc2s1` it was inactive: -17.1%. Take `O=C(Cn1c(=O)n(Cc2ccco2)c(=O)c2oc3ccccc3c21)Nc1ccc(F)cc1F`: the “activity change, negative = inhibition” value was inactive: -21%.

In the case of `Cc1nn(CCCC(=O)Nc2ccccc2C(F)(F)F)c(=O)c2c1sc1ccccc12`, the “activity change, negative = inhibition” value was inactive: -4.04%. The result for `COc1cccc(NC(=O)Nc2cc(-c3cn4cccnc4n3)ccc2C)c1` reads inactive: -17.5%; that for `CCC(Sc1nnc(C)n2c1cc1occc12)C(=O)Nc1ccccc1F` (centres undefined), inactive: -2.95%; that for `Cn1c(=O)n(C)c2cc(NS(=O)(=O)c3ccccc3)c(NCc3ccccc3)cc21`, inactive: 89.5%. Consider `O=C(NCCO)C(=O)Nc1c2c(nn1-c1ccc(F)cc1)CSC2`, for which the “activity change, negative = inhibition” value is inactive: -13.4%. The result for `CC(C)Oc1ccc(CNC(=O)C2CCN(C(=O)c3sccc3-n3cccc3)CC2)cc1` reads inactive: -29.5%; that for `Cc1ccc(-c2noc(CNC(=O)c3ccc(C(C)(C)C)cc3)n2)cc1`, inactive: -2.06%. Turning to `COc1ccccc1CNC(=O)CN1C(=O)CSc2ccc(S(=O)(=O)N3CCCC3)cc21`, the “activity change, negative = inhibition” value is inactive: -8.02%. `COCc1cc(C)n(CC(=O)Nc2ccc(NC(C)=O)cc2)c(=O)c1C#N`: the “activity change, negative = inhibition” value was inactive: -11.1%. On to `COc1ccc(N2CCN(c3cc(C)nc4nc(-c5ccc(C)cc5)nn34)CC2)cc1`, for which the “activity change, negative = inhibition” value is inactive: -11%. In the case of `CC1=C(C#N)C(NC(=O)c2cccc(Cl)c2)(C(F)(F)F)C(=O)N1` (centres undefined) it was inactive: -6.4%; in that of `Cc1ccc(Cl)cc1NC(=O)N1CCN(C)c2ncccc21`, inactive: -4.32%; in that of `CCc1cc2c(cc3c(=O)n(CC(=O)N4CCN(c5cc(Cl)ccc5C)CC4)ncn32)s1`, inactive: -1.64%. In the case of `Cc1ccc(S(=O)(=O)c2cn(C)c3cc(N4CCN(C)CC4)c(F)cc3c2=O)cc1` it was inactive: -12.1%; in that of `COc1ccccc1N1CCN(S(=O)(=O)c2c(C)sc3ncn(CC(=O)N(C)c4ccc(C(C)C)cc4)c(=O)c23)CC1`, inactive: -28.7%; in that of `CNS(=O)(=O)c1ccc(OC)c(-c2nnc3c4ccccc4c(C)nn23)c1`, inactive: -8.03%. The result for `Cc1ccc(C(=O)Nc2ccc3[nH]c(=O)c(=O)[nH]c3c2)cc1` reads inactive: 1.93%; that for `Cc1ccc(C2CCN(C(=O)Nc3ccc(C)c(C)c3)C2)cc1` (centres undefined), inactive: 30.5%; that for `O=c1c2c3c(sc2n(Cc2ccc(F)cc2Cl)c(=O)n1-c1ccc(Cl)cc1)CCC3`, inactive: 17.8%. Regarding `CCOc1ccc2cc(-c3nnc(Nc4ccc(C)cc4)s3)c(=O)oc2c1`, the “activity change, negative = inhibition” value is inactive: 0.56%.

`Cc1ccccc1OCc1ccc(-c2nc(C#N)c(N3CCC(C(N)=O)CC3)o2)o1`: the “activity change, negative = inhibition” value was inactive: -28.8%. The result for `CCOc1ccc2c(c1)c(=O)c(S(=O)(=O)c1ccc(Cl)cc1)cn2Cc1ccccc1C` reads inactive: -18.4%; that for `COc1cccc(Nc2nc3ccc(C(=O)c4ccccc4)cc3n3c(C)nnc23)c1`, inactive: -1.78%. In the case of `COc1ccc(NC(=O)c2ccc(NC(=O)CCS(=O)(=O)c3cccs3)cc2)cc1` it was inactive: 5.53%; in that of `O=C(Nc1ccc(Cl)c(-c2nc3cc(Cl)ccc3o2)c1)c1cc2ccccc2o1`, inactive: 0%; in that of `Cc1ccccc1NS(=O)(=O)c1nnc(NC(=O)c2ccco2)s1`, inactive: -8.58%. The result for `CCOC(=O)c1c(S(=O)(=O)NCC(=O)N(C)c2ccc(C)cc2)c(C)n(C)c1C` reads inactive: -0.357%; that for `Cc1ccc(C)c(CN2C(=O)c3ccccc3S(=O)c3ccc(C(=O)NCCC4=CCCCC4)cc32)c1` (centres undefined), inactive: -27%; that for `COc1ccc(CCC(=O)NCCc2csc(-c3cccc(C)c3)n2)cc1`, inactive: 0.849%.

With `Cc1ccccc1-c1nc(SCC(=O)N(C)c2ccccc2)c2c(=O)n(C)c(=O)n(C)c2n1`, the “activity change, negative = inhibition” value is inactive: 31.6%. In the case of `CCc1cccc(NC(=O)Cn2nc3c4cc(F)ccc4n(Cc4cccc(C)c4)cc-3c2=O)c1` it was inactive: -11.1%; in that of `CCc1ccccc1N1C(=O)N(CC(=O)c2ccc(OC)cc2)c2ccccc2S1(=O)=O`, inactive: -18.7%.

Turning to `CC(C)Oc1ccc(C(=O)Nc2nonc2-c2ccc(OC(C)C)cc2)cc1`, the “activity change, negative = inhibition” value is inactive: 0.588%. In the case of `COC(=O)CCN(C(=O)C1CCN(S(=O)(=O)c2c(C)noc2/C=C/c2ccccc2F)CC1)c1ccccc1` it was inactive: -22.3%; in that of `COc1cc(NC(=O)CC(c2cccs2)N2Cc3ccccc3C2=O)cc(OC)c1OC` (centres undefined), inactive: -8.57%. Turning to `COc1ccc(NC(=O)C(=O)NCc2ccco2)cc1`, the “activity change, negative = inhibition” value is inactive: 41.6%. Take `CCN(CCCNC(=O)Cn1ncc2c([nH]c3ccc(C)cc32)c1=O)Cc1ccccc1`: the “activity change, negative = inhibition” value is inactive: -1.8%.

For `Clc1cccc(CSc2nnc(C3CCNCC3)o2)c1`, the “activity change, negative = inhibition” value is inactive: 3.13%. `CC(C)n1c(=N)c(C(=O)NC2CCCCC2)cc2c(=O)n3ccccc3nc21`: the “activity change, negative = inhibition” value was inactive: -13.4%. The result for `CC(=O)c1ccc(NC(=O)Cn2nc(C(F)(F)F)c3c2CCCC3)cc1` reads inactive: -16.4%; that for `COc1cccc(CN(C(=O)c2cccc(C)c2)C2CCS(=O)(=O)C2)c1` (centres undefined), inactive: -6.81%; that for `COc1ccc(OC)c(-c2noc(N3CCN(c4cccc(C)c4C)CC3)n2)c1`, inactive: -29%. As for `CC(N[C@H]1CCCC[C@H]1NC(=O)c1ccc(Cl)cc1)c1cccc2ccccc12` (some centres undefined), the “activity change, negative = inhibition” value is inactive: -17.8%. Consider `CCc1ccc(NC(=O)Cn2c(=O)n(-c3cc(C)cc(C)c3)c(=O)c3oc4ccccc4c32)cc1`, for which the “activity change, negative = inhibition” value is inactive: -4.7%. In the case of `COC(=O)c1ccccc1NC(=O)C1=C(C)C(=O)OC12CCC(C)CC2` (centres undefined) it was inactive: -17.8%; in that of `COC(=O)CC1Oc2ccc(C)cc2-n2cc(-c3ccc(C)cc3)nc21` (centres undefined), inactive: -22.8%; in that of `Cc1ccc(CSc2oc(-c3cccs3)nc2S(=O)(=O)c2ccc(C)cc2)cc1`, inactive: -20.7%.

With `Cc1ccc(-n2nc3c(=O)n(CCCC(=O)NC(C)c4ccccc4)nc(C)c3c2C)cc1` (centres undefined), the “activity change, negative = inhibition” value is inactive: -19.3%. The result for `Cc1ccc2oc(C(=O)Nc3sc4c(c3C(=O)NCc3cccnc3)CCCC4)cc(=O)c2c1` reads inactive: 8.91% [at 11.5 µM]. As to `CCCN(CCC)C(=O)Cn1c(=O)n(Cc2ccc(C(=O)NCCc3ccc(Cl)cc3)cc2)c(=O)c2ccccc21`, the “activity change, negative = inhibition” value is inactive: -18.9%. The result for `COc1ccccc1Cn1cc(C(=O)c2ccc(C)cc2)c(=O)c2cc(F)cc(F)c21` reads inactive: 4.9%; that for `CCOc1ccc(CCNC(=O)CSc2cc(=O)n(C)c3ccc(Cl)cc23)cc1OCC`, inactive: -9.85%; that for `CCCc1cnc2c(c1SCc1ccc(C(F)(F)F)cc1)c(=O)n(C)c(=O)n2C`, inactive: -15.5%.

As to `CC(C)Oc1ccc(CNC(=O)c2ccc(Cn3c(=O)c4cccn4c4cccnc43)cc2)cc1`, the “activity change, negative = inhibition” value is inactive: 7.98%.

On to `Cc1ccc(NC(=O)CSc2ccc(-c3sc(-c4ccccc4)nc3C)nn2)cc1F`, for which the “activity change, negative = inhibition” value is inactive: -0.783%. The result for `CCN1C(=O)C2(c3ccccc31)c1c(oc3ccc(F)cc3c1=O)C(=O)N2CCCOC` (centres undefined) reads inactive: -9.43%; that for `COc1ccccc1N1CCN(C(=O)Cn2ncc3c(=O)oc4ccc(C)cc4c32)CC1`, inactive: 8.47%; that for `Cc1cccc(N2CCN(C(=O)CCSCc3ccccc3F)CC2)c1C`, inactive: 9.82%.

For `COc1ccc(-c2nsc(NC(=O)c3oc4cc(C)c(C)cc4c3C)n2)cc1`, the “activity change, negative = inhibition” value is inactive: -4%. For the compound `Cc1cccc(CNC(=O)c2cnc3sc(N4CCCCCC4)nn3c2=O)c1`, the “activity change, negative = inhibition” value was inactive: -5.31%. The result for `CC(=O)c1ccc(NC(=O)Cn2c(=O)n(Cc3ccco3)c(=O)c3sc4ccccc4c32)cc1` reads inactive: -19.3%; that for `Cc1nn2c(=O)cc(COC(=O)CNC(=O)c3ccc(F)cc3)nc2s1`, inactive: 2.82%; that for `CCN1CCN(c2cc(C)c3cc(NC(=O)c4cc(Cl)ccc4OC)ccc3n2)CC1`, inactive: -1.56%. Consider `Cc1ccc(-n2ncc(C(=O)NCCCN3CCCCC3)c2C2CCN(C(=O)OC(C)(C)C)CC2)cc1`, for which the “activity change, negative = inhibition” value was inactive: -13.3%. Consider `Cc1ccc(OCC(O)Cn2c(=N)n(CCN3CCCCC3)c3ccccc32)cc1` (centres undefined), for which the “activity change, negative = inhibition” value is inactive: -20.9%. As for `COc1cccc(OC)c1C(=O)Nc1ccc(S(=O)(=O)Nc2nccc(C)n2)cc1`, the “activity change, negative = inhibition” value is inactive: -3.04%. Turning to `Cc1ccc(NC(=O)c2c(C)nc3sc(C(=O)Nc4ccc(F)cc4)c(N)c3c2-c2ccccc2Cl)c(C)c1`, the “activity change, negative = inhibition” value was inactive: -17.7%. Turning to `O=C(O)c1cc(-c2ccc(C(F)(F)F)cc2)nc2n[nH]c(-c3ccccc3)c12`, the “activity change, negative = inhibition” value is inactive: 26.2%.

As for `CCc1ccc(S(=O)(=O)c2cn(CC)c3cc(N4CCOCC4)c(F)cc3c2=O)cc1`, the “activity change, negative = inhibition” value is inactive: -0.426%. The result for `CC(=O)c1ccc(NC(=O)Cn2cc3c(n2)CCCC3)cc1` reads inactive: -14.8%; that for `COc1ccccc1C(=O)Nc1nnc(S(=O)(=O)N(C)c2ccc(Cl)cc2)s1`, inactive: 15.8%; that for `COc1ccc(Cl)cc1NC(=O)c1ccc2c(c1)CCCN2S(C)(=O)=O`, inactive: -18%.

For the compound `CCOc1ccc2c(c1)c(=O)c(S(=O)(=O)c1ccccc1)cn2CC(=O)Nc1ccccc1OC`, the “activity change, negative = inhibition” value was inactive: -20.4%.

As for `Cc1nc(-c2ccccc2)sc1CCNS(=O)(=O)c1ccccc1`, the “activity change, negative = inhibition” value was inactive: -19.1%. As to `COc1ccc(NC(=O)CN2C(=O)CSc3ccc(S(=O)(=O)N4CCCC4)cc32)cc1OC`, the “activity change, negative = inhibition” value is inactive: -22.5%. As for `Cc1ccccc1Cn1c(CN2CCC(C(=O)NCCN(C)C)CC2)cc2ccccc21`, the “activity change, negative = inhibition” value is inactive: -14.7%. On to `Cc1ccccc1NC(=O)CN1C(=O)C(C)(C)c2ccccc21`, for which the activity change, negative = inhibition was inactive: -18% [at 11.5 µM]. Regarding `COc1cccc(NC(=O)c2cc3c(=O)n(C)c4ccccc4c3n2C)c1`, the “activity change, negative = inhibition” value is inactive: -3.22%. On to `CCCCNC(=O)c1cnn2c(C)c(Cc3c(F)cccc3Cl)c(C)nc12`, for which the “activity change, negative = inhibition” value is inactive: -18%.

(Values after PubChem BioAssay AID1508623 (National Center for Advancing Translational Sciences (NCATS), 2021).)
